About 50,000 (12%) of roughly 420,000 compounds were called active. This list was built around the results that the source calls inconclusive (neither active nor inactive); the mix of calls is not that of the screen. Calls follow the shape of the dose curve; as a rule, active = well fitted inhibition curve with a large enough effect; inconclusive = small, poorly fitted or top-dose-only effect; inactive = flat fitted curve, though single readings scatter. Potencies of inconclusive entries are left out as doubtful fits.
Test: qHTS for Inhibitors of human tyrosyl-DNA phosphodiesterase 1 (TDP1): qHTS in cells in presence of CPT; also: nearly all actives have a fitted effect of over 55% in size
Conditions: chicken DT40 Tdp1-/-;hTDP1 cells + 20 nM CPT, ATP luminescence, 48 h; activity change, negative = growth inhibition: at 46.2 µM (top of the series) unless noted
How it was run: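 Cell growth measured by CellTiter-Glo luminescence after a minimum 48 h, 37 C compound exposure with 20 nM CPT in Tdp1-knockout DT40 cells stably expressing hTDP1, seeded 400/well; qHTS titration format.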
% is scaled to controls: 0 for no effect and ±100 for the full control effect; potency is read from the fitted curve at half-maximal effect; tags tell the direction and shape of the fitted curve.

SMILES	Potency	activity change, negative = growth inhibition
COc1ccc(C)cc1Nc1n[n+](-c2ccccc2)c(-c2cc([N+](=O)[O-])cc(OC)c2O)s1	active: 20.6 µM	
CCOC(=O)c1cc(-c2ccccc2)nn1Cc1cc(CC)no1	inconclusive [inhibitor, single point]	
O=C(Cn1c2[n+](c3ccc(C(F)(F)F)cc31)CCCCC2)c1ccc2c(c1)OCCO2	inconclusive [inhibitor, partial curve]	
O=C(Nc1cccc(C(F)(F)F)c1)Nc1nnc(N2CCCCC2)s1	inconclusive [inhibitor, full curve]	
Nc1ccc(S(=O)(=O)NN=CC=Cc2ccccc2[N+](=O)[O-])cc1	inconclusive [inhibitor, single point]	
O=C(c1ccc(Cl)cc1)C1CCCN(C(=O)/C=C/c2ccccn2)C1 (stereo not given)	active: 23.1 µM	
CCC1CCCCN1Cc1nc2c(c(=O)n(C)c(=O)n2C)n1Cc1c(F)cccc1Cl (stereo not given)	inconclusive [inhibitor, single point]	
CC1Cc2ccccc2N1S(=O)(=O)c1cnc(Cl)c(Cl)c1 (stereo not given)	active: 16.4 µM	
COc1cc(C(=O)NCC(=O)N2CCN(S(=O)(=O)c3ccccc3)CC2)cc(OC)c1OC		inactive: 19.5%
CCCNC(=O)Cn1nc(-c2ccc(C)c(C)c2)c2cnc3ccc(F)cc3c21	inconclusive [inhibitor, single point]	
CC(C)(C)C(=O)N1CCC[C@H]1C(O)(c1ccccc1)c1ccccc1	inconclusive [inhibitor, single point]	
CCOC(=O)c1c(CSc2ccc(C)cc2)oc2ccc(O)cc12	inconclusive [inhibitor, single point]	
CCN(c1ccccc1)S(=O)(=O)c1ccc2[nH]cc(C(=O)NCc3ccc(C)cc3)c(=O)c2c1	inconclusive [inhibitor, partial curve]	
O=C1CC2(CCN(C(=O)C(=O)c3c[nH]c4ccccc34)CC2)Oc2ccccc21	inconclusive [inhibitor, partial curve]	
COc1cc2nc(NC(=O)c3ccco3)sc(=O)c2cc1OC	inconclusive [inhibitor, partial curve, poor fit]	
O=C(CCNS(=O)(=O)c1ccccc1C(F)(F)F)N1CCN(c2ccccc2O)CC1	inconclusive [inhibitor, single point]	
N#CC1=C(N)Oc2ccc3ccccc3c2C1c1cccnc1 (stereo not given)	active: 3.66 µM	
Cc1ccccc1Cn1nc(C)c(NC(=O)C2c3ccccc3Oc3ccccc32)c1C	active: 11.6 µM	
CCc1cc(CNC(=O)C2CCC(=O)N(Cc3cccc(F)c3)C2)on1 (stereo not given)		inactive: -7.31%
COCCNC(=O)Cn1c(=O)oc2cc(S(=O)(=O)N3CC(C)CC(C)C3)ccc21 (stereo not given)	inconclusive [inhibitor, single point]	
CCN(CC)c1ccc(S(=O)(=O)N2CCOCC2)cc1NC(=O)CN1CCc2ccccc2C1	active: 4.61 µM	
COc1ccc(C(=O)/C=C/Nc2ccc(C)cn2)cc1OC	inconclusive [inhibitor, partial curve]	
CC(C)CN(C(=O)COc1ccccc1C(=O)NCc1ccccc1)C1CCS(=O)(=O)C1 (stereo not given)		inactive: -22%

SMILES	Potency	activity change, negative = growth inhibition
COc1ccc(N2CC(NC(=O)c3ccc(OC(C)C)cc3)CC2=O)cc1 (stereo not given)		inactive: -8.72%
OCCNCc1cc(Br)ccc1OCc1ccccc1Cl	active: 20.6 µM	
O=C1NN=C2CCCCCCCCCCC12 (stereo not given)		inactive: -22.9%
O=C(N[C@@H](Cc1ccccc1)C(=O)NC1CCCCCC1)c1ccco1	inconclusive [inhibitor, partial curve, poor fit]	
CCOc1ccc(C(C)NC(=O)c2cccc(F)c2)cc1 (stereo not given)	inconclusive [inhibitor, single point]	
O=C(C[n+]1cccc2cccc(O)c21)c1ccc2ccccc2c1	inconclusive [inhibitor, single point]	
COc1ccccc1C(=O)Nc1ccc(S(=O)(=O)N2CCCCC2c2cccnc2)cc1 (stereo not given)	inconclusive [inhibitor, single point]	
COc1cc(OC)cc(C(=O)N2CCN(S(=O)(=O)c3ccc(Cl)s3)CC2)c1		inactive: 3.44%
Cc1ccc(OCC(=O)Nc2ccc3nc(Nc4cccc(Cl)c4)cc(C)c3c2)cc1		inactive: 4.3%
O=C(CSc1nnc(-c2ccco2)c(-c2ccco2)n1)Nc1ccccc1	inconclusive [inhibitor, single point]	
CCOc1ccc(CC(=O)NC2CCN(Cc3ccccc3)CC2)cc1		inactive: -11.6%
COc1ccc(CNC(=O)c2c(O)c3cccc4c3n(c2=O)CCC4)cc1OC	inconclusive [inhibitor, single point]	
COc1ccc(OCc2cc(C(=O)NCc3nc(C)cs3)no2)c(Cl)c1	inconclusive [inhibitor, single point]	
Cn1ccnc1C1CCCCN1Cc1nc(-c2ccc3c(c2)OCO3)no1 (stereo not given)		inactive: -0.236%
O=C(c1cc(C(F)(F)F)cc(C(F)(F)F)c1)N1CCC[C@@]2(CCN(c3ncccn3)C2)C1	inconclusive [inhibitor, single point]	
CC1Cc2ccccc2N1C(=O)CSc1nnc(-c2ccc(S(=O)(=O)N3CCCC3)cc2)n1C (stereo not given)	inconclusive [inhibitor, single point]	
COc1ccc(-c2nc3sc(CCNS(=O)(=O)c4ccc(F)c(C)c4)c(C)n3n2)cc1	inconclusive [inhibitor, single point]	
COc1ccccc1CNC(=O)CN1C(=O)CCn2nc(-c3ccccc3)cc21	inconclusive [inhibitor, single point]	
COC(=O)C(NS(=O)(=O)c1ccc(N2CCCC2=O)cc1)c1ccccc1 (stereo not given)		inactive: -0.584%
COC(=O)Cn1ccnc1[N+](=O)[O-]		inactive: -5.53%
CCOc1ncccc1C(=O)Nc1ccc(S(=O)(=O)N2CC(C)CC(C)C2)cc1 (stereo not given)		inactive: -25.2%
COc1nc(OC)nc(N2CCC(C(=O)NC3CCCCCC3)CC2)n1	inconclusive [inhibitor, single point]	

— PubChem BioAssay AID686979 (National Center for Advancing Translational Sciences (NCATS), 2013)
